# Measurements as given in PMC4336329 (PLoS ONE, 2015).
# Out of some 310,000 compounds screened, about 14,000 (4.5%) showed an effect of 50% or more. Effects have a minus sign here. The list shows a part of the results.
# Biological target: human ether-à-go-go-related gene (hERG) potassium channel (human, UniProt Q12809)
# Test: primary screen, population patch clamp on CHO cells stably expressing hERG
# 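Note: peak tail current of the secondary pulse compared with the same well before compound.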
# Sequence of human ether-à-go-go-related gene (hERG) potassium channel (Q12809 whole entry, looked up): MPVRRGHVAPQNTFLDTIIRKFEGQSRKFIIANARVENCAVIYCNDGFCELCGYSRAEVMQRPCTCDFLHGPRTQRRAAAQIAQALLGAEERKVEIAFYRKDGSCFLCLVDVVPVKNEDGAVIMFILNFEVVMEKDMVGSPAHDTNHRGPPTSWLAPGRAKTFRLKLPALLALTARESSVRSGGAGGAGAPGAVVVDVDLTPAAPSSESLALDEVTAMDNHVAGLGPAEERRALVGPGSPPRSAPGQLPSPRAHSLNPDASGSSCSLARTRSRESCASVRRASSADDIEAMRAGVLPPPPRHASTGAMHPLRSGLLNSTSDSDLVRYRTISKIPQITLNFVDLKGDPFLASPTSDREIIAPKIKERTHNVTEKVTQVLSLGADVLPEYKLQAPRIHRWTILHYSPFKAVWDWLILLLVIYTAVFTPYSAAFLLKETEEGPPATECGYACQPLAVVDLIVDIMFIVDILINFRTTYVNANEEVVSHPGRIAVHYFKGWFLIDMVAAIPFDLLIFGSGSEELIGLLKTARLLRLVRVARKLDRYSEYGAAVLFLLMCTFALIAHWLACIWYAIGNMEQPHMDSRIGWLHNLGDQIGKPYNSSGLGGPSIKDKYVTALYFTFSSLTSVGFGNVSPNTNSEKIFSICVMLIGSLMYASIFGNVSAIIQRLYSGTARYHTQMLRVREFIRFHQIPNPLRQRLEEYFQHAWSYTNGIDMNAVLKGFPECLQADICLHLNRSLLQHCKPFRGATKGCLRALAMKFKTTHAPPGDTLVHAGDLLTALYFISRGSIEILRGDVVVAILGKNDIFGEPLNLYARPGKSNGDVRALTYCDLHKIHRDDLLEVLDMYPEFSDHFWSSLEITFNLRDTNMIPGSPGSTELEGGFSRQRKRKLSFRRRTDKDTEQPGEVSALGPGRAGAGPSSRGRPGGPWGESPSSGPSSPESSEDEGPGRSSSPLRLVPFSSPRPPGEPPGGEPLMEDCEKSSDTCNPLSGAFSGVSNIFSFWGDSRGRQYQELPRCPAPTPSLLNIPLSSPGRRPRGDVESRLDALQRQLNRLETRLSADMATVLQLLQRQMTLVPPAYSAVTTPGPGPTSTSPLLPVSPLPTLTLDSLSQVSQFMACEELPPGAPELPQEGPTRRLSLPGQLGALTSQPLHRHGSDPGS
row,SMILES,"hERG current change (%, negative = inhibition) at 10uM [%]"
1,CN1C(=O)N(C)C(=O)C2(Cc3c(nc4ccccn4c3=O)N3CCc4ccccc4C32)C1=O (stereo not shown),-6.12
2,CCC(=O)Nc1ccc(S(=O)(=O)Nc2c(NC)c3ccccc3oc2=O)cc1,22.4
3,CC(NC(=O)COC(=O)/C=C/c1cccc(C(F)(F)F)c1)c1ccccc1 (stereo not shown),15.2
4,O=C(Nc1sc2c(c1C(=O)O)CCCC2)c1cccc(Cl)c1,61.4
5,O=C(CSc1nc2ccccc2n1CCc1ccccc1)N1CCOCC1,-19.2
6,CC1CCCCN1CCCNC(=O)c1nn(C)c2c1CS(=O)(=O)c1ccccc1-2 (stereo not shown),-8.49
7,CCCCNC(=O)CC1N=C2c3ccccc3N=C(SCC(=O)Nc3ccccc3OC)N2C1=O (stereo not shown),-47.4
8,Cc1cc([N+](=O)[O-])nn1CC(=O)NC1CCCCC1,16
9,COc1ccc(C(=O)Nc2nc(C)c(C(C)=O)s2)cc1S(=O)(=O)N1CCOCC1,0.765
10,C(=N\n1cnnc1)/C1CCCCC1,14.4
11,Cc1ccc(C(=O)CC(=O)COc2ccc(Cl)cc2C)cc1,-2.39
12,CC(=O)N1CCOc2ccc(S(=O)(=O)NCC3CCC(C(=O)NCCC(C)C)CC3)cc21 (stereo not shown),13
13,COc1ccc(-c2cc3c(=O)n(CC(=O)NCCCN4CCC(Cc5ccccc5)CC4)ncn3n2)cc1,-72.4
14,O=C(/C=C/c1ccccc1)NC(=S)Nc1ccccc1,20.6
15,Cc1ccc(CNC(=O)CCCOc2cc(=O)n(C)c3ccccc23)o1,-17.9
16,CC(=O)c1ccc(N2CCN(Cc3nc4ccccc4[nH]3)CC2)cc1,-13.2
17,O=C(NCc1ccccn1)[C@H]1C[C@@H]1[C@H](NP(=O)(c1ccccc1)c1ccccc1)c1ccccc1,-9
18,Cc1ccc(S(=O)(=O)N2CC=C(C(=O)NCc3ccccc3)CC2)cc1,-9.94
19,CCn1nc(C(=O)NNC(=O)COc2ccccc2C)c2ccccc2c1=O,-16
20,NC(=O)C1CCN(C(=O)c2cc(S(=O)(=O)N3CCOCC3)c(Cl)cc2Cl)CC1,8.61
21,O=C(NCCO)c1ccccc1O,15
22,COc1ccc(C2NC(c3ccc(OC)c(OC)c3OC)C(C)C(=O)C2C)c(OC)c1OC.Cl (stereo not shown),8.95

row,SMILES,"hERG current change (%, negative = inhibition) at 10uM [%]"
1,CCc1ccccc1NC(=O)C1CCN(C(=O)c2cccs2)CC1,-24.3
2,COc1ccc(NC(=O)Cn2nnc(C(=O)Nc3ccc(F)c(Cl)c3)c2N)cc1,25.9
3,COC(=O)c1ccsc1NC(=O)CCS(=O)(=O)c1ccccc1,6.36
4,CCN(CC)S(=O)(=O)c1ccc(NC(=O)c2ccc(Cl)nc2)cc1,-22.3
5,COc1ccc(/C=C(/C#N)C(=O)Nc2ccccc2C)cc1C(=O)O,16.8
6,O=C(COc1ccc2ccccc2c1Br)N1CCCC1,-9.24
7,COc1ccc(N2CCN(C(=O)c3ccc(NS(=O)(=O)c4ccccc4)cc3)CC2)cc1,-40.8
8,COc1ccc(OC)c(Nc2nc(NCc3ccco3)c3ccccc3n2)c1.Cl,-12.2
9,COc1ccc(CN2CC(C(=O)NCCc3ccc(Cl)cc3)CC2=O)cc1 (stereo not shown),-16.5
10,COC(=O)C1=C(C)NC(=O)C1(NC(=O)c1ccncc1)C(F)(F)F (stereo not shown),9.15
11,Cc1ccc(CCNC(=O)C2CCN(C(=O)N(C)C)CC2)cc1,2.96
12,Cc1ccc2nc(SCC(=O)Nc3ccc4c(c3)OCCO4)nc(=O)n2c1,0.235
13,COc1cc(C2CC(=O)c3cnc(NC(=O)COc4ccccc4)nc3C2)cc(OC)c1OC (stereo not shown),-3.29
14,CCOC(=O)N1CCN(C(=O)c2ccc(N(C)S(=O)(=O)c3ccc(C)cc3)cc2)CC1,-33.1
15,CSc1n[nH]c(-c2ccc(C(F)(F)F)cc2)n1,13.2
16,CC(=O)Nc1ccc(S(=O)(=O)Nc2nccc(/C=C/c3ccccc3F)n2)cc1,14.1
17,N#CCCN(C(=O)CSc1ccc2c(c1)OCCO2)c1ccc(F)cc1,3.49
18,CN1CCCN(C(=O)C2CCC(C(=O)N3CCCN(C)CC3)CC2)CC1.Cl (stereo not shown),35.8
19,Cl.O=C(CSc1nc2cc(Cl)ccc2o1)Nc1ccc(N2CCOCC2)cc1,0.61
20,CCN(CCn1cccn1)C(=O)c1cc(COc2ccc(F)c(F)c2)on1,-96
21,CCCC(=O)c1ccc(N2CCN(C(=O)c3ccc(Br)cc3)CC2)c(F)c1,2.35
22,Cn1c(=O)c2ccccc2n(CC(=O)NC2CCCCC2)c1=O,7.09

row,SMILES,"hERG current change (%, negative = inhibition) at 10uM [%]"
1,COc1cccc(NC(=O)C2CCN(c3ncccn3)CC2)c1,-11.7
2,Cc1cccc(NC(=O)c2ccccc2NC(=O)c2ccccc2)n1,-0.693
3,COc1ccc(N2CCC(CNC(=S)Nc3c(C)cc(C)cc3C)C2)cc1 (stereo not shown),11.4
4,COC(=O)[C@H](C)NC(=O)Nc1ccc(OC(F)(F)F)cc1,10.8
5,C1CCC(CNc2c3c(nc4nnnn24)CCCC3)CC1,4.78
6,COc1ccc(CC(=O)NC2CC2)cc1OC,11.4
7,Cc1ccc(S(=O)(=O)N2CCN(C(=O)c3cc4c(C)nn(-c5ccccc5C)c4s3)CC2)cc1,-4.39
8,COC(=O)c1cc(OC)c(OC)cc1NC(=S)N1CCCCC1,-9.9
9,CCNC(=O)C1CN(S(=O)(=O)c2ccccc2)CCN1S(=O)(=O)c1ccccc1 (stereo not shown),-9.54
10,O=C(CNC(=O)N1CC(=O)Nc2ccccc21)NCc1ccc(Cl)cc1,16.9
11,CC(=O)c1c(C)[nH]c(C(=O)OCCCCN2C(=O)c3ccccc3C2=O)c1C,9.16
12,CCOc1ccc(NC(=O)C2CC(=O)N(CC)C(=Nc3ccc4c(c3)OCO4)S2)cc1 (stereo not shown),8.36
13,CCOCCCNc1c2c(nc3cc(-c4ccc(F)cc4)nn13)CCC2,10.1
14,Br.CCn1c(=N)n(CC(=O)C23CC4CC(CC(C4)C2)C3)c2ccccc21,-32.3
15,Cc1cc(C)c(C)c(OCCOCCN2CCN(C)CC2)c1,-1.93
16,Cc1ccc(Oc2nn[nH]n2)cc1,0.395
17,Cc1ccc(S(=O)(=O)N2CCN(S(C)(=O)=O)C2c2ccccc2)cc1 (stereo not shown),-37.2
18,CN1C(=O)C(=Cc2ccc(SC3CCCCC3)o2)C(=O)N(C)C1=O,0.95
19,O=C(O)c1ccc(S(=O)(=O)Nc2ccc(F)c(Cl)c2)cc1,13.4
20,Cc1cccc2cc(CN(Cc3cccnc3)C(=O)c3ccccc3F)c(Cl)nc12,-49.6
21,CSc1nsc(NC(=O)Nc2ccccc2)n1,6.64
22,CCn1nc(C)c(NS(=O)(=O)c2ccccc2)c1C,4.32

row,SMILES,"hERG current change (%, negative = inhibition) at 10uM [%]"
1,Cc1c(C)n(C)c2ccc(C(=O)N3CCN(c4ccccn4)CC3)cc12,-12.7
2,CCOc1cccc(CNCCc2c(C)[nH]c3ccc(OC(F)(F)F)cc23)c1O.O=C(O)C(=O)O,-51.9
3,CCOC(=O)c1cnc(SCC)[nH]c1=O,-3.67
4,O=C(Cn1ncn2c(cc3ccccc32)c1=O)NCc1ccco1,-1.39
5,O=c1ccnc(Nc2ccc(Cl)cc2)[nH]1,-10.3
6,COC(=O)/C(=C/c1ccc(OC)cc1)NC(=O)c1ccco1,9.25
7,Cc1cccc(OCC(=O)Nc2c3c(nn2C(C)(C)C)CS(=O)(=O)C3)c1,-4.45
8,CCCCn1c(N)c(C(=O)OCCOC)c2nc3ccccc3nc21,-42.4
9,CCN1C(=O)[C@@H]2[C@H](C1=O)[C@@H]1CC(C(=O)OC)=C[C@@H](C(=O)OC)C3C1=C(C(=O)C3(CC)CC)[C@@H]2C (stereo partly shown),-1.09
10,CC(Oc1ccc2ccc(=O)oc2c1)C(=O)NCC1CCC(C(=O)O)CC1 (stereo not shown),-14.3
11,COc1ccc(C(=O)Nc2nnc(Cc3ccc(OC)c(OC)c3)s2)c(OC)c1,-3.97
12,Cl.O=C(NCCN1CCN(c2ccccc2)CC1)c1cccc(Cl)c1,-54.2
13,CC(=O)c1cccc(NC(=O)c2csc3c2CCCCC3)c1,-3.35
14,Nc1c(N(CCC2=CCCCC2)C(=O)Cc2ccccc2F)c(=O)[nH]c(=O)n1Cc1ccccc1,-28.1
15,Cn1cc(S(=O)(=O)N2CCN(c3cccc(C(F)(F)F)c3)CC2)c(=O)n(C)c1=O,-31.4
16,Cn1cc([N+](=O)[O-])cc1-c1nc2ccccc2n1C,0.157
17,Cc1ccc(S(=O)(=O)Nc2cc3c(cc2N2CCOCC2)n(C)c(=O)c(=O)n3C)cc1,-9.6
18,Br.CCCc1cc(-c2nc(-c3ccc(Br)cc3)cs2)ccn1,15.3
19,C=CCN(CC=C)C(=S)NC(=O)c1ccc(OC)cc1,12.4
20,O=C1/C(=C/c2cc3c(cc2Cl)OCO3)N2CCC1CC2,1.1
21,CC(C)(c1ccccc1)c1ccc(OCC2CO2)cc1 (stereo not shown),6.41
22,Cc1ccc(O)c(NC(=O)c2noc3c2CCc2ccccc2-3)c1,7.39
